From the supplement of paper PMC4967469

Experiments:
Assay in all cases: Viability of human cancer cell lines after 72 h of drug (GDSC screen)
Elesclomol = compound: CN(NC(=O)CC(=O)NN(C)C(=S)c1ccccc1)C(=S)c1ccccc1 [Elesclomol]; details: top dose 0.2 µM; top dose inferred
Protocol: (§1)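 Human cancer cell lines in 384-well plates, medium with 10% serum, drug for 72 h over a 256-fold dose range (nine 2-fold or five 4-fold steps up to the top dose). Adherent lines were fixed and stained with the nucleic acid dye Syto60, suspension lines read with resazurin; signal relative to control wells, capped at 0 and 100%. One two-parameter sigmoid per drug and line, fitted in a mixed model over all curves with the slope shared within a line.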

HG-5-88-01 = compound: COc1cc(N2CCC(C(N)=O)CC2)ccc1Nc1nc(N)c(Cl)c(Nc2ccccc2S(=O)(=O)C(C)C)n1 [HG-5-88-01]; details: top dose 10 µM; top dose inferred
Protocol: as §1

Bleomycin = compound: Cc1c(N)nc([C@H](CC(N)=O)NC[C@H](N)C(N)=O)nc1C(=O)N[C@H](C(=O)N[C@H](C)[C@@H](O)[C@H](C)C(=O)N[C@H](C(=O)NCCc1nc(-c2nc(C(=O)NCCC[S+](C)C)cs2)cs1)[C@@H](C)O)[C@@H](OC1OC(CO)C(O)C(O)C1OC1OC(CO)C(O)C(OC(N)=O)C1O)c1cnc[nH]1 [Bleomycin]
Protocol: as §1

VNLG/124 = compound: CCCC(=O)OCc1ccc(OC(=O)/C=C(C)/C=C/C=C(C)/C=C/C2=C(C)CCCC2(C)C)cc1 [VNLG/124]; details: top dose 5.12 µM; top dose inferred
Protocol: as §1

Masitinib = compound: Cc1ccc(NC(=O)c2ccc(CN3CCN(C)CC3)cc2)cc1Nc1nc(-c2cccnc2)cs1 [Masitinib]; details: top dose 20 µM
Protocol: as §1

LAQ824 = compound: O=C(/C=C/c1ccc(CN(CCO)CCc2c[nH]c3ccccc23)cc1)NO [LAQ824]; details: top dose 1.024 µM; top dose inferred
Protocol: as §1

OSI-930 = compound: O=C(Nc1ccc(OC(F)(F)F)cc1)c1sccc1NCc1ccnc2ccccc12 [OSI-930]; details: top dose 10.24 µM
Protocol: as §1

BX-912 = compound: O=C(Nc1cccc(Nc2ncc(Br)c(NCCc3cnc[nH]3)n2)c1)N1CCCC1 [BX-912]; details: top dose 10.24 µM; top dose inferred
Protocol: as §1

NSC-87877 = compound: O=S(=O)(O)c1ccc2cc(N=Nc3cc(S(=O)(=O)O)c4cccnc4c3O)ccc2c1 [NSC-87877]; details: top dose 16 µM; top dose inferred
Protocol: as §1

[1] = top dose 50 µM, screen: GDSC drug entry 1378, top dose inferred
[2] = top dose 64 µM, screen: GDSC drug entry 190

Cell Line	AUC (Elesclomol)	IC50 (Elesclomol) [µM]	AUC (HG-5-88-01)	IC50 (HG-5-88-01) [µM]	AUC (Bleomycin; [1])	IC50 (Bleomycin; [1]) [µM]	AUC (VNLG/124)	IC50 (VNLG/124) [µM]	AUC (Bleomycin; [2])	IC50 (Bleomycin; [2]) [µM]	AUC (Masitinib)	IC50 (Masitinib) [µM]	AUC (LAQ824)	IC50 (LAQ824) [µM]	AUC (OSI-930)	IC50 (OSI-930) [µM]	AUC (BX-912)	IC50 (BX-912) [µM]	AUC (NSC-87877)	IC50 (NSC-87877) [µM]
ZR-75-30 (breast, adherent)	0.428	0.00718	0.966	> 10	0.968	> 50														
CAPAN-1 (pancreas, adherent)	0.659	0.0364	0.985	> 10	0.892	> 50	0.987	> 5.12	0.334	1.3	0.967	> 20	0.629	0.152	0.987	> 10.2	0.961	> 10.2	0.967	> 16
HCC1428 (breast, adherent)	0.777	0.0882	0.986	> 10	0.953	> 50	0.986	> 5.12	0.896	> 64	0.912	> 20	0.268	0.013	0.978	> 10.2	0.971	> 10.2	0.987	> 16
Jurkat (T-cell leukaemia, suspension)			0.972	> 10	0.559	4.38														
MDA-MB-468 (breast, adherent)	0.184	0.00148	0.978	> 10	0.539	3.97	0.979	> 5.12	0.835	39.8	0.886	> 20	0.665	0.18	0.914	> 10.2	0.586	1.09	0.987	> 16
SNU-C2B (large intestine, adherent)	0.62	0.0296	0.942	> 10	0.595	6.18	0.979	> 5.12	0.434	2.49	0.933	> 20	0.42	0.036	0.925	> 10.2	0.964	> 10.2	0.974	> 16
HCC1954 (breast, adherent)	0.983	> 0.2	0.964	> 10	0.58	5.35	0.98	> 5.12	0.842	56.3	0.825	14.7	0.57	0.103	0.98	> 10.2	0.983	> 10.2	0.962	> 16
MKN28 (stomach, adherent)	0.385	0.00597	0.935	> 10	0.568	4.83	0.956	> 5.12	0.039	< 0.25	0.95	> 20	0.413	0.0368	0.98	> 10.2	0.955	> 10.2	0.854	13.1
HCC1569 (breast, adherent)	0.969	> 0.2	0.934	> 10	0.864	> 50	0.976	> 5.12	0.295	0.861	0.859	> 20	0.448	0.0441	0.965	> 10.2	0.845	> 10.2	0.973	> 16
A549 (lung adenocarcinoma, adherent)	0.422	0.00743	0.904	> 10																
AU565 (breast, adherent)	0.498	0.0124	0.928	> 10	0.931	> 50	0.93	> 5.12	0.434	2.58	0.883	> 20	0.323	0.0193	0.963	> 10.2	0.973	> 10.2	0.916	> 16
HCC38 (breast, adherent)	0.882	> 0.2	0.984	> 10	0.651	8.52	0.984	> 5.12	0.128	< 0.25	0.973	> 20	0.362	0.0257	0.986	> 10.2	0.936	> 10.2	0.942	> 16
MDA-MB-175-VII (breast, adherent)	0.917	> 0.2	0.986	> 10	0.964	> 50	0.979	> 5.12	0.395	1.99	0.879	> 20	0.646	0.17	0.954	> 10.2	0.973	> 10.2	0.924	> 16
Capan-2 (pancreas, adherent)	0.938	> 0.2	0.866	> 10	0.845	48	0.982	> 5.12	0.691	15.5	0.944	> 20	0.685	0.238	0.975	> 10.2	0.93	> 10.2	0.98	> 16
HCC202 (breast, adherent)	0.781	0.12	0.977	> 10	0.935	> 50	0.978	> 5.12	0.75	28.6			0.356	0.0217			0.899	> 10.2		

IC50 is the fitted dose that halves viability relative to control wells, and lower means more sensitive; fits outside the tested doses are given as limits. AUC is the area under the same curve over the 256-fold range up to the top dose, as a fraction; it is 1 without any effect and falls as sensitivity rises. For some assays here: An inferred top dose was calculated from the reported fits. For some assays here: Where an entry number is given, a second screen of the drug exists; the two often differ.
